Results on ten compounds are retold here after the supplement of paper PMC4604168 (melanoma cell lines).

The list shows a part of the results. Most values come without repeats; read them as rough.

Some test systems named below: G361; IPC-298; IST-MEL1; LB2518-MEL; LOXIMVI; MEL-HO; MZ2-MEL; MeWo; RPMI7951; RVH-421.
Holding throughout (test): cell count relative to DMSO control; melanoma cells; higher = more viable cells
Common to all, as to conditions: library dose: standard library concentration; 72 h
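Also: cells treated in 1,536-well plates, then fixed and DAPI-stained, with nuclei counted from automated high-throughput microscope images.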

Regarding `NC1(c2ccc(-c3nc4ccn5c(=O)[nH]nc5c4cc3-c3ccccc3)cc2)CCC1` + CN1CCN(c2ccc3nc(-c4c(N)c5c(F)cccc5[nH]c4=O)[nH]c3c2)CC1 [Dovitinib] (first compound 2 µM, partner dose 0.5 µM), the cell count with G361 is 48.7%; in the experiment on IPC-298, 56.1%; with IST-MEL1, 54.8%; with LB2518-MEL, 43.2%; in the experiment with LOXIMVI it was 64.9%; in the experiment on MEL-HO, 50.9%. Besides, the cell count in the experiment on MZ2-MEL came out at 45.1%; with MeWo it was 41.5%; in the experiment with RPMI7951, 58.6%; with RVH-421, 68.9%.
Take `CN(c1ncccc1CNc1nc(Nc2ccc3c(c2)CC(=O)N3)ncc1C(F)(F)F)S(C)(=O)=O` + CO[C@H]1C[C@@H]2CC[C@@H](C)[C@@](O)(O2)C(=O)C(=O)N2CCCC[C@H]2C(=O)O[C@H]([C@H](C)C[C@@H]2CC[C@@H](OCCO)[C@H](OC)C2)CC(=O)[C@H](C)/C=C(\C)[C@@H](O)[C@@H](OC)C(=O)[C@H](C)C[C@H](C)/C=C/C=C/C=C/1C [everolimus] (first compound 0.4 µM, partner dose 0.1 µM): the cell count came to 61.6% in the experiment with G361; 79.1% with IPC-298; 78.4% in the experiment with IST-MEL1; 80.4% in the experiment on LB2518-MEL; 84.2% with LOXIMVI; 74.4% with MEL-HO. The cell count was found to be 75.6% in the experiment with MZ2-MEL, 87.5% in the experiment on MeWo, 78% with RPMI7951 and 92.9% with RVH-421.
Turning to `C=C(c1ccc(C(=O)O)cc1)c1cc2c(cc1C)C(C)(C)CCC2(C)C` [Bexarotene] + CC(C)(C)c1cnc(CSc2cnc(NC(=O)C3CCNCC3)s2)o1 [SNS-032] (first compound 10 µM, partner dose 0.05 µM), the cell count in the experiment on G361 was determined as 72.2%; in the experiment on IPC-298, 83.5%; in the experiment with IST-MEL1 it was 98.6%; with LB2518-MEL, 92.8%; with LOXIMVI it was 83.8%; in the experiment on MEL-HO it was 85%. The cell count with MZ2-MEL worked out at 102%; in the experiment on MeWo it was 87.5%; in the experiment on RPMI7951 it was 53.2%; in the experiment with RVH-421, 71.4%.
`CN(c1ncccc1CNc1nc(Nc2ccc3c(c2)CC(=O)N3)ncc1C(F)(F)F)S(C)(=O)=O` + Cc1nc(Nc2ncc(C(=O)Nc3c(C)cccc3Cl)s2)cc(N2CCN(CCO)CC2)n1 [dasatanib] (first compound 0.4 µM, partner dose 0.02 µM): the cell count with G361 was 54.1%; in the experiment with IPC-298, 71.4%; in the experiment with IST-MEL1, 67.4%; in the experiment with LB2518-MEL, 78%; with LOXIMVI, 12.3%; with MEL-HO, 63.9%. Moreover, the cell count in the experiment with MZ2-MEL amounted to 16%; in the experiment with MeWo, 94.2%; with RPMI7951, 34.3%; with RVH-421 it was 53.4%.
As to `CCCS(=O)(=O)Nc1ccc(F)c(C(=O)c2c[nH]c3ncc(Cl)cc23)c1F` + C[C@@H]1CCN(C(=O)CC#N)C[C@@H]1N(C)c1ncnc2[nH]ccc12 [CP690550] (first compound 0.4 µM, partner dose 5 µM), the cell count in the experiment with G361 worked out at 60.4%; in the experiment with IPC-298, 83.1%; in the experiment on IST-MEL1 it was 46.1%; in the experiment with LB2518-MEL, 103%; in the experiment on LOXIMVI it was 93%; in the experiment on MEL-HO it was 75.5%. In addition, the cell count with MZ2-MEL is 85.7%; in the experiment on MeWo it was 86.3%; with RPMI7951, 80.3%; with RVH-421 it was 89%.
With `CN(c1ncccc1CNc1nc(Nc2ccc3c(c2)CC(=O)N3)ncc1C(F)(F)F)S(C)(=O)=O` + Cc1cc(Nc2cc(N3CCN(C)CC3)nc(/C=C/c3ccccc3)n2)n[nH]1 [ENMD2076] (first compound 0.4 µM, partner dose 0.2 µM), the cell count was 75.2% in the experiment with G361; 82.5% in the experiment on IPC-298; 93.9% in the experiment on IST-MEL1; 86.3% in the experiment on LB2518-MEL; 87.6% in the experiment on LOXIMVI; 105% with MEL-HO. The cell count in the experiment on MZ2-MEL was determined as 96.4%; in the experiment on MeWo, 92.8%; in the experiment with RPMI7951, 57.3%; with RVH-421 it was 97.4%.
With `NC1(c2ccc(-c3nc4ccn5c(=O)[nH]nc5c4cc3-c3ccccc3)cc2)CCC1` + Nc1ncn([C@H]2C[C@H](O)[C@@H](CO)O2)c(=O)n1 [decitabine] (first compound 2 µM, partner dose 0.5 µM), the cell count with G361 came out at 80.7%; with IPC-298, 57%; in the experiment with IST-MEL1, 75.9%; in the experiment with LB2518-MEL it was 71%; with LOXIMVI, 55.8%; in the experiment with MEL-HO, 68.5%. In addition, the cell count in the experiment on MZ2-MEL was 64.4%; with MeWo, 60.5%; in the experiment with RPMI7951, 79%; in the experiment on RVH-421, 130%.
On to `CN(c1ncccc1CNc1nc(Nc2ccc3c(c2)CC(=O)N3)ncc1C(F)(F)F)S(C)(=O)=O` + C=CCNC1=C2C[C@@H](C)C[C@H](OC)[C@H](O)[C@@H](C)/C=C(\C)[C@H](OC(N)=O)[C@@H](OC)/C=C\C=C(/C)C(=O)NC(=CC1=O)C2=O [Tanespimycin] (first compound 0.4 µM, partner dose 0.01 µM), for which the cell count with G361 was found to be 63.7%; in the experiment on IPC-298, 86.1%; in the experiment on IST-MEL1, 76.7%; in the experiment with LB2518-MEL, 70%; in the experiment with LOXIMVI it was 126%; in the experiment on MEL-HO, 94%. In addition, the cell count in the experiment with MZ2-MEL stood at 83.1%; with MeWo, 101%; in the experiment on RPMI7951, 14%; in the experiment with RVH-421, 77.6%.
Turning to `CS(=O)(=O)c1ccc(C(=O)Nc2ccc(Cl)c(-c3ccccn3)c2)c(Cl)c1` [vismodegib] + C=CCNC1=C2C[C@@H](C)C[C@H](OC)[C@H](O)[C@@H](C)/C=C(\C)[C@H](OC(N)=O)[C@@H](OC)/C=C\C=C(/C)C(=O)NC(=CC1=O)C2=O [Tanespimycin] (first compound 5 µM, partner dose 0.01 µM), the cell count was 78.2% with G361; 88.6% in the experiment with IPC-298; 66.3% with IST-MEL1; 85.6% in the experiment with LB2518-MEL; 107% in the experiment with LOXIMVI; 104% in the experiment on MEL-HO. The cell count with MZ2-MEL came out at 96.4%; with MeWo it was 70.3%; in the experiment on RPMI7951, 23.8%; in the experiment with RVH-421 it was 99.7%.
In the case of `CN(c1ncccc1CNc1nc(Nc2ccc3c(c2)CC(=O)N3)ncc1C(F)(F)F)S(C)(=O)=O` + Nc1nc(F)nc2c1ncn2[C@@H]1O[C@H](CO)[C@@H](O)[C@@H]1O [fludarabine] (first compound 0.4 µM, partner dose 1 µM), the cell count with G361 came to 74.5%; with IPC-298 it was 69.8%; in the experiment with IST-MEL1, 76.8%; in the experiment on LB2518-MEL, 68.8%; with LOXIMVI it was 54.4%; in the experiment on MEL-HO, 58.1%. The cell count was found to be 67.2% in the experiment on MZ2-MEL, 88% in the experiment on MeWo, 41% in the experiment with RPMI7951 and 97.6% in the experiment with RVH-421.
